Screen size: about 270,000 compounds; about 5,800 (2.1%) were called active. The inconclusive results got no clear call from the source; some entries with a clear call stand among them for comparison. Calls come from the whole dose curve; as a rule, active = well fitted inhibition curve with a large enough effect; inconclusive = small, poorly fitted or top-dose-only effect; inactive = flat fitted curve, though single readings scatter. Potencies beside an inconclusive call are fits to weak or partial responses and may not hold up.
These molecules were tested against Microtubule-associated protein tau (Homo sapiens) (UniProt P10636) (assay: qHTS for Inhibitors of Tau Fibril Formation, Thioflavin T Binding). Conditions: recombinant tau K18 P301L (four-repeat tau fragment), heparin-induced fibrillization, ThT fluorescence; series mostly up to 57.4 µM.
Outline: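 Recombinant human tau K18 fragment […] carrying P301L, 15 uM unlabeled plus 0.24 uM Alexa 594-labeled, was fibrillized with 20 uM heparin in 100 mM sodium acetate pH 7 for 6 hr at 37 C; 30 uM ThT fluorescence read after 1 hr.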
Note: nearly all actives have a fitted effect of over 55% in size.
Potency is the fitted concentration of half-maximal effect; tags give direction and shape of the fitted curve.

Chain of UniProt P10636 (P10636 whole entry, looked up, the tested form may be a part): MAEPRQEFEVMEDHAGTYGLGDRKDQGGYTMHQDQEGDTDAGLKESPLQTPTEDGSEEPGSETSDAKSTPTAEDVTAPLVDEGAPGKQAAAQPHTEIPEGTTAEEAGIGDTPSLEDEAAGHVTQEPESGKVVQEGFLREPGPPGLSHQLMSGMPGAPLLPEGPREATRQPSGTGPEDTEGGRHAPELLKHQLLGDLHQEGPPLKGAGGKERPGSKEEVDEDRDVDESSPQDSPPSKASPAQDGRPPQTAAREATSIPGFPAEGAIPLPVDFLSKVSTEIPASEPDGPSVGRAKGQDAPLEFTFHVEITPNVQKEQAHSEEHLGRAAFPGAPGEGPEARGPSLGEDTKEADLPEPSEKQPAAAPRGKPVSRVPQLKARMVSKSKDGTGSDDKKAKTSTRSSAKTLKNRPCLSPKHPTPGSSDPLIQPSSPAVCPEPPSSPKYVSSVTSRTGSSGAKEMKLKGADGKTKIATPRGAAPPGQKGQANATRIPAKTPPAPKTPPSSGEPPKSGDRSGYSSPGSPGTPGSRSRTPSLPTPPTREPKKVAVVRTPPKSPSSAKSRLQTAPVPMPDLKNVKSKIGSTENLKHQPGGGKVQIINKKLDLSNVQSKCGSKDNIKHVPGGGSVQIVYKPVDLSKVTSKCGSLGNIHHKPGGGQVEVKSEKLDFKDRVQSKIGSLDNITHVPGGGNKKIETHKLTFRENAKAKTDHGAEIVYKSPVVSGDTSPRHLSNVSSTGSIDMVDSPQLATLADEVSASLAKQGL

Row | SMILES | Potency
1 | CC1(c2ccccc2)CC(C)(C)N2C(=O)C3(C(C#N)=C(N)Oc4cc(O)ccc43)c3cccc1c32 (stereo unspecified) | inactive
2 | Cc1cccc(N2C(=O)CCSC23C(=O)N(Cc2ccc(F)cc2)c2ccccc23)c1 (stereo unspecified) | inconclusive: 39.8 µM [inhibitor, single point]
3 | Cc1sc2nc(C3CCCCC3)nc(SCC(=O)N3CC(=O)Nc4ccccc43)c2c1C | inconclusive: 39.8 µM [inhibitor, single point]
4 | COc1ccc(C(=O)NNC(=S)NC(=O)c2ccco2)cc1 | inconclusive: 17.8 µM [inhibitor, partial curve]
5 | O=c1nc2s/c(=C\c3ccco3)c(=O)n2nc1Cc1ccccc1 | inconclusive: 25.1 µM [inhibitor, partial curve]
6 | CC(C)c1ccc(/C=N/Nc2ccc(C(=O)O)cc2)cc1 | inconclusive: 28.2 µM [inhibitor, partial curve]
7 | COc1cc(OC)cc(C(=O)n2cnnc2N)c1 | inconclusive: 15.8 µM [inhibitor, partial curve]
8 | COc1ccc(Cc2nnc(N/N=C/c3ccc(O)cc3O)[nH]c2=O)cc1OC | inactive
9 | CCN(CC)CCCN(Cc1cc2cc3c(cc2[nH]c1=O)OCCO3)C(=O)Nc1ccccc1 | inconclusive: 28.2 µM [inhibitor, partial curve]
10 | CCn1c(SCC(=O)N/N=C/C(C)=C\c2ccco2)nnc1-c1ccccc1 | inconclusive: 17.8 µM [inhibitor, single point]
11 | O=C(CC1(O)C(=O)N(CCc2ccccc2)c2ccc(Br)cc21)c1ccccc1O (stereo unspecified) | inconclusive: 15.8 µM [inhibitor, partial curve]
12 | Cc1ccc(C)c(C(=O)COC(=O)c2ccc(Br)o2)c1 | inconclusive: 22.4 µM [inhibitor, partial curve]
13 | N#Cc1c(N)oc(-c2ccc3c(c2)OCO3)c1-c1ccc2c(c1)OCO2 | inconclusive: 31.6 µM [inhibitor, partial curve]
14 | Cc1ccc2nc(N3CCN(c4cccc(C)c4C)CC3)c3nnnn3c2c1 | inactive
15 | CCOC(=O)c1ccc(NC(=S)N2CCN(CCN=CC3=C(O)CC(c4ccccc4)CC3=O)CC2)cc1 (stereo unspecified) | inconclusive: 17.8 µM [inhibitor, partial curve, poor fit]
16 | CC(/C=C1\N=C(SCc2ccccc2Cl)SC1=O)=C\c1ccccc1 | inconclusive: 14.1 µM [inhibitor, partial curve]
17 | O=C(COC(=O)COc1ccc2ccccc2c1)NC1CCCc2ccccc21 (stereo unspecified) | inconclusive: 39.8 µM [inhibitor, single point]
18 | CC(/C=N/n1c(COc2ccccc2)n[nH]c1=S)=C\c1ccccc1 | inconclusive: 10 µM [inhibitor, partial curve]
19 | Cc1cccc(NC(=O)CSc2nnc(CNC(=O)c3c(F)cccc3Cl)o2)c1C | inactive
20 | CN(C)c1nc(N)c2ncc(=S)[nH]c2n1 | inconclusive: 7.08 µM [inhibitor, full curve]
21 | O=c1cc(O)nc(SCc2ccccc2)[nH]1 | inconclusive: 20 µM [inhibitor, partial curve]
22 | CCCCCn1c(=O)[nH]c2cc(C(=O)Nc3ccc(F)cc3)ccc2c1=O | inconclusive: 0.891 µM [inhibitor, single point]

Row | SMILES | Potency
23 | CC(=O)N(c1cccc(C)c1)C1SC(=O)N(c2ccccc2)C1=O (stereo unspecified) | inconclusive: 15.8 µM [inhibitor, partial curve]
24 | CCOc1ccc(/C=C2\SC(=S)N(CCC(=O)O)C2=O)cc1 | inconclusive: 10 µM [inhibitor, partial curve]
25 | COc1ccc(C(=O)Nc2cc([N+](=O)[O-])ccc2N2CCCC2)cc1 | inconclusive: 25.1 µM [inhibitor, partial curve]
26 | OC[C@H]1O[C@@H](n2cnc3c(NCc4ccccc4)ncnc32)[C@H](O)[C@@H]1O | inactive
27 | CC(=O)c1ccc(NC(=O)NCCc2c[nH]c3ccccc23)cc1 | inconclusive: 4.47 µM [inhibitor, full curve]
28 | Cc1ccc(-n2c(C)cc(/C([O-])=C(/C(=S)Nc3ccc(F)c(Cl)c3)[n+]3ccccc3)c2C)cc1 | inconclusive: 17.8 µM [inhibitor, partial curve]
29 | CSc1ccc(-c2cccc([N+](=O)[O-])c2)nn1 | inconclusive: 39.8 µM [inhibitor, single point]
30 | COc1ccc(NC(=S)N(CCc2c(C)[nH]c3ccccc23)Cc2cccnc2)cc1 | inconclusive: 10 µM [inhibitor, partial curve]
31 | COc1ccc2c(C)c(CCC(=O)NCCc3ccc(Cl)cc3)c(=O)oc2c1 | inactive
32 | Cc1ccc(C(=O)Nc2nc(=O)n(C(=O)C3CC3)s2)cc1 | active: 8.91 µM
33 | O=C(CSc1c2c(nc3cc(Cl)ccc13)CCCC2)NCc1ccco1 | inconclusive: 7.94 µM [inhibitor, full curve]
34 | Cc1ccc2nc(SCc3ccc([N+](=O)[O-])cc3)[nH]c2c1 | inconclusive: 39.8 µM [inhibitor, single point]
35 | Cc1ccc(Cl)cc1N1CCN(C(=O)c2ccc(C)c(-n3c(C)nc4cccnc43)c2)CC1 | inactive
36 | Cc1cc(C)c2c(c1)/C(=N/Nc1ccc(S(N)(=O)=O)cc1[N+](=O)[O-])CCC2 | inconclusive: 1.58 µM [inhibitor, full curve]
37 | CCOC(=O)C1=C(O)/C(=C/c2ccc(CNC(=O)C(=O)Nc3ccc(C)cc3)o2)N=C1C | inconclusive: 5.01 µM [inhibitor, full curve]
38 | Cc1cc(C(F)F)n2nc(C(=O)Nc3ccc(F)c(Cl)c3)nc2n1 | inactive
39 | O=C(O)c1cc(Cl)c2ccccc2c1O | inconclusive: 35.5 µM [inhibitor, single point]
40 | O=C(NNC(=S)NC(=O)c1sc2ccccc2c1Cl)c1ccc(Cl)cc1 | active: 14.1 µM
41 | CC(C)(C)OC(=O)N1CCC[C@H]1C(O)(c1ccccc1)c1ccccc1 | inactive
42 | Cc1cccc([C@H]2[C@@H]3C=CCC[C@@H]3C(=O)N2Cc2ccccc2)c1 | inactive
43 | CCCSc1nc(N2CCOCC2)c2c(c1C#N)CCCC2 | inconclusive: 28.2 µM [inhibitor, single point]
44 | COC(=O)Cc1ccc2c3ccccc3n(C)c2c1 | inconclusive: 22.4 µM [inhibitor, partial curve]

Row | SMILES | Potency
45 | O=C(Nc1cc(C(F)(F)F)ccc1Cl)C(Sc1n[nH]c(=O)[nH]c1=O)c1ccccc1 (stereo unspecified) | inactive
46 | Cc1ccc(C2C3=C(Nc4[nH]n(-c5ccccc5)c(=O)c42)c2ccccc2C3=O)cc1 (stereo unspecified) | active: 7.94 µM
47 | COc1ccc(CCNC(=O)c2ccc([N+](=O)[O-])cc2)cc1 | inconclusive: 17.8 µM [inhibitor, partial curve, poor fit]
48 | CCC/C=C(\CCC)C(NS(=O)(=O)c1ccccc1)c1ccc(C(F)(F)F)cc1 (stereo unspecified) | inactive
49 | Cc1ccc(NC(=O)C(Cc2ccccc2)NS(=O)(=O)c2cccc3nsnc23)c(C)c1 (stereo unspecified) | inconclusive: 0.0251 µM [inhibitor, full curve, poor fit]
50 | Cc1ccc(C)c(C(=O)Nc2cc(C)nn2-c2nc(C)cc(C)n2)c1 | inactive
51 | CCN(CCCNC(=O)c1cc2cc3ccc(OC)cc3nc2s1)c1ccccc1 | inconclusive: 1.58 µM [inhibitor, full curve]
52 | C#CCOCCOCCOCCNc1nc(N2CCN(C(=O)[C@H]([C@@H](C)CC)n3cc([C@@H](N)CC(C)C)nn3)CC2)nc(N2CCN(C(=O)[C@H](Cc3cc4ccccc4[nH]3)n3cc([C@@H](N)Cc4ccc(O)cc4)nn3)CC2)n1 | inconclusive: 28.2 µM [inhibitor, single point]
53 | COc1ccc(S(=O)(=O)N2Cc3ccccc3CC2C(=O)Nc2ccc(O)cc2)cc1OC (stereo unspecified) | inconclusive: 25.1 µM [inhibitor, single point]
54 | O=C1C=CC2(OCCCO2)C(Br)=C1CO | active: 15.8 µM
55 | CCOc1ccc2nc(SCC(=O)N3CCCc4ccccc43)sc2c1 | inconclusive: 31.6 µM [inhibitor, single point]
56 | Cc1ccc(-c2csc(N/N=C/c3ccco3)n2)cc1 | active: 14.1 µM
57 | Oc1ccccc1C=NC1=NN(c2cccc(C(F)(F)F)c2)CC1 | inconclusive: 14.1 µM [inhibitor, partial curve]
58 | CCc1ccc(NC(=O)c2ccc3c(c2)C(=O)N(Cc2ccco2)C3=O)cc1 | inconclusive: 7.94 µM [inhibitor, full curve, poor fit]
59 | O=C(COc1ccc(-c2ccccc2)cc1)NN=C1CCCC1 | inconclusive: 15.8 µM [inhibitor, single point]
60 | Cc1cccc(CNC(=O)c2ccc(Cn3c(=O)c4cccn4c4cccnc43)cc2)c1 | inactive
61 | COc1cccc(Nc2nc(-c3ccccc3)c3cc(C)ccc3n2)c1 | inconclusive: 39.8 µM [inhibitor, single point]
62 | O=S1(=O)c2ccccc2N=NN1Cc1cc(Cl)cc(Cl)c1 | inconclusive: 22.4 µM [inhibitor, partial curve]
63 | CCOC(=O)C1=C(O)/C(=C/c2ccc(OCC(=O)O)c(OCC)c2)SC1=Nc1ccccc1 | inconclusive: 22.4 µM [inhibitor, partial curve]
64 | COC(=O)c1ccccc1NC(=O)CSc1nccn1C | inactive
65 | CC1CCN(CCCn2c(=S)[nH]c3c(sc4ccc([N+](=O)[O-])cc43)c2=O)CC1 | inconclusive: 0.316 µM [inhibitor, full curve, poor fit]
66 | Cc1ccc(NCC(=O)N/N=C/c2cccc(Oc3ccccc3)c2)cc1 | inconclusive: 14.1 µM [inhibitor, partial curve]
